The list shows a part of the results.

The test concerns the target T1, OsWOX13 (Oryza sativa, UniProt Q5QMM3 1-267).
T1 sequence: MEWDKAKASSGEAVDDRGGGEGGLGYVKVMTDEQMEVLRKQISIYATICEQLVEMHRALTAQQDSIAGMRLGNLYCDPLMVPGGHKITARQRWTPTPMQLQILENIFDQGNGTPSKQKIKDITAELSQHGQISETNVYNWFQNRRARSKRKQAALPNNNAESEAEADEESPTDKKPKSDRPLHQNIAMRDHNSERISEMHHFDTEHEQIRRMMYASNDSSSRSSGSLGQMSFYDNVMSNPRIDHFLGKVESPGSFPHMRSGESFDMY
The experiment in a line: protein-binding microarray (RPBM); PBS, 2% BSA, 51.3 ng/ul salmon testes DNA, 50 uM zinc acetate, 200 nM TF, 25 C, 1 h; high values mean tight binding. To be noted: protein: recombinant; tags: N-terminal polyhistidine and DsRed monomer fusion (pET32a); label: CyDye5-dUTP incorporated in the synthesized complementary strand; 3' TTTTT single-stranded linker to array surface; dsDNA, one strand shown. The procedure, abridged: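 Transcription factors were made in E. coli BL21-CodonPlus as N-terminal fusions to a polyhistidine tag and DsRed, then purified on Ni–NTA. After primer extension with Cy5-dUTP and blocking with 2% BSA, a custom Agilent array was exposed for 1 h at 25 °C to 200 nM protein in PBS, 2% BSA, salmon testes DNA and 50 µM zinc acetate. Washed arrays were scanned on an Axon 4000B, and the binding signal is per-feature fluorescence intensity in arbitrary units.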
Take “TGGTGCCAATTAGTTTTCTTGTGTAAATCTGAAGTTCTGACGGAGTCACCTAGTGCAG”: the binding signal was 5750 fluorescence intensity (a.u.).
As to “TTTCTCCAATTATATCATAATAACCATTTAACTTAAACAACGGAGTCACCTAGTGCAG”, the binding signal was 4530 fluorescence intensity (a.u.).
Take “TACCAAATTAAGCCATTTTGATAGTGACCTCAGTAGATCCCGGAGTCACCTAGTGCAG”: the binding signal was 7940 fluorescence intensity (a.u.).
To “TAGAATTGATAATGTTTAACGCATTACTCTCGATTGGGAGCGGAGTCACCTAGTGCAG” belongs 19600 fluorescence intensity (a.u.); to “CGAATTTGCAAATTACGTATTGAGATCCCTAAACTTGATTCGGAGTCACCTAGTGCAG”, 8840 fluorescence intensity (a.u.).
As to “TCTGATTTAACTGCATTGCATTTGTGTCATTGACATGTGGCGGAGTCACCTAGTGCAG”, the binding signal is 42600 fluorescence intensity (a.u.).
As to “AACGCAATCATCGAAACAGACCAACTGCACGTCTGCACAGCGGAGTCACCTAGTGCAG”, the binding signal is 6840 fluorescence intensity (a.u.).
On to “CTAGAATCAATCAAACAATCCTTGCAATTCCCCAACCCTACGGAGTCACCTAGTGCAG”, for which the binding signal was 15300 fluorescence intensity (a.u.).
Consider “CTTAAAATTATGGTAGATCAAAGACAAAATGATCAATAGCCGGAGTCACCTAGTGCAG”, for which the binding signal is 3980 fluorescence intensity (a.u.).
As to “ACAACTAATTTAACACGAACAATCAACCTAGATTTTCCCGCGGAGTCACCTAGTGCAG”, the binding signal is 24000 fluorescence intensity (a.u.).
The figure for “AAGCCTAATTAACGAGAGCTGCTGCTAGCTGGCTCAGGCTCGGAGTCACCTAGTGCAG” is 8820 fluorescence intensity (a.u.); for “TCATTTAATTAGATCTTCATTTCCATCCAGCGTACTTAAACGGAGTCACCTAGTGCAG” it is 19400 fluorescence intensity (a.u.); for “CCAATCAATCAAGCAGCTGCTGGCTAGCTAGCTTGCACTGCGGAGTCACCTAGTGCAG” it is 30700 fluorescence intensity (a.u.).
As to “ACAATGATTTGTCAACACCTTTCTGCACAATGTATATATCCGGAGTCACCTAGTGCAG”, the binding signal is 19000 fluorescence intensity (a.u.).
The figure for “TGTTTTACTCTCAATCTAGATTGTTTTAGATCAATTATAACGGAGTCACCTAGTGCAG” is 4880 fluorescence intensity (a.u.); for “ACATAACATATGAGATTGAAATTTCTTGAACCATACATTACGGAGTCACCTAGTGCAG” it is 9950 fluorescence intensity (a.u.).
Consider “CGTTCTAGGCCACTAAATTGACACGACAGGGCCGGGTTAGCGGAGTCACCTAGTGCAG”, for which the binding signal is 12300 fluorescence intensity (a.u.).
In the case of “CTAAAACCGGATCAATTGACATCCCTCGACGGTTTACATTCGGAGTCACCTAGTGCAG”, the binding signal was 4700 fluorescence intensity (a.u.).
Turning to “TGTTAATGAAATCAATACGAATGTGGAAAATGCTAGAATGCGGAGTCACCTAGTGCAG”, the binding signal is 6160 fluorescence intensity (a.u.).
Regarding “ATTCATTAACATTAATATAAATGTAGAAAATGATAGAATGCGGAGTCACCTAGTGCAG”, the binding signal is 4520 fluorescence intensity (a.u.).
“ATTAGTAGATAATCTATAAATCAATTCGTAGATTACTTACCGGAGTCACCTAGTGCAG”: the binding signal is 5400 fluorescence intensity (a.u.).
“AGATGTCTGTTAATTTCCACCCCTCATTTGCCAATACCAACGGAGTCACCTAGTGCAG”: the binding signal is 4190 fluorescence intensity (a.u.).
With “ATTATTGATTTGATGAAACTAATTTAGTATTATAAATATTCGGAGTCACCTAGTGCAG”, the binding signal was 34600 fluorescence intensity (a.u.).
The figure for “TTGGATTGGAGTGATTGCGCTTTTGGAGAAATTGGTTTTGCGGAGTCACCTAGTGCAG” is 45700 fluorescence intensity (a.u.).
Regarding “CAGTAACTTTTAATTAGTTACTGCTCGCGGCGGCAGATGCCGGAGTCACCTAGTGCAG”, the binding signal is 10500 fluorescence intensity (a.u.).
“TCTAAAGAAATTTTCTCTGTCAATAGATGATTCCATCACCCGGAGTCACCTAGTGCAG”: the binding signal is 3900 fluorescence intensity (a.u.).
The figure for “TTTTAGGATGATTTAATTGTAAATTTAAAATTAAAATGGTCGGAGTCACCTAGTGCAG” is 35400 fluorescence intensity (a.u.); for “CACTAATGTTCAACTGCCAATCTATTGTAGTACAGCAAGCCGGAGTCACCTAGTGCAG” it is 8980 fluorescence intensity (a.u.); for “TAAATTCTGCTTAGACATAATTGTGTATCTGTGCTCAAAGCGGAGTCACCTAGTGCAG” it is 3530 fluorescence intensity (a.u.).
In the case of “AACCGAAAATTATTATTTTAATCGGCGTGGTGTCCACTGGCGGAGTCACCTAGTGCAG”, the binding signal is 4880 fluorescence intensity (a.u.).
In the case of “AGTTAATTATGTGCCGGTCCCCGCTGTTGTCCACCATCCGCGGAGTCACCTAGTGCAG”, the binding signal is 30600 fluorescence intensity (a.u.).
With “ATGGTTAATGGACATGTTGTATCTGGTATTTCGGTTCAAGCGGAGTCACCTAGTGCAG”, the binding signal was 8630 fluorescence intensity (a.u.).
In the case of “CCCTAGATTATTAATGTCCTCCTCCTCATCATCACCATCTCGGAGTCACCTAGTGCAG”, the binding signal was 8950 fluorescence intensity (a.u.).
Regarding “CCACAAACGTGGCAAAGATTGACACCGAATCTCTGACGTGCGGAGTCACCTAGTGCAG”, the binding signal is 6070 fluorescence intensity (a.u.).
On to “CTTGGTTAATTTCCTTTGAGTCTATCTCTCTCATCCAATTCGGAGTCACCTAGTGCAG”, for which the binding signal was 4410 fluorescence intensity (a.u.).
As for “CTACTATTTTGAAAGTGATTGGTTCTACAAATTTCTTAGTCGGAGTCACCTAGTGCAG”, the binding signal is 12200 fluorescence intensity (a.u.).
To “AGTATGTACCAGCACAAATTAATTAATGCAACACACACACCGGAGTCACCTAGTGCAG” belongs 4760 fluorescence intensity (a.u.); to “ATAATATGATCTGTTTAACCCAATTTAGCACTTAGAGATTCGGAGTCACCTAGTGCAG”, 4790 fluorescence intensity (a.u.).
As to “CCATCTCTGATTGCAAGCGCGACTGCGCGACATCCATCCACGGAGTCACCTAGTGCAG”, the binding signal is 11000 fluorescence intensity (a.u.).
With “TTAATTAATTGAAAGGATATAATTTCTTTCTCGAATTAATCGGAGTCACCTAGTGCAG”, the binding signal is 33000 fluorescence intensity (a.u.).
With “TTTGGATTGGCCAGAACAAGATATACTTTCGAATCTTTTGCGGAGTCACCTAGTGCAG”, the binding signal was 11300 fluorescence intensity (a.u.).
To “CGGTGATTAAAACCGAGGTGTTCTCACGGTCGCGGCATGACGGAGTCACCTAGTGCAG” belongs 6090 fluorescence intensity (a.u.).

For the origin of these results see PMC7819943, “Rice protein-binding microarrays: a tool to detect cis-acting elements near promoter regions in rice”.
